Laboratory results reported in PubChem BioAssay AID1487 (National Center for Advancing Translational Sciences (NCATS), 2009).
The whole screen tested about 200,000 compounds, of which about 25 (0.01%) were called active. Another 23% or so got no clear call; they are omitted. Calls follow the shape of the dose curve; as a rule, active = well fitted inhibition curve with a large enough effect in the signal ratio, with a control signal flat (not every such curve was filed as active); inconclusive = small, poorly fitted or top-dose-only effect, or effect the other way, or a change in a side signal; inactive = flat fitted curve, though single readings scatter; the % refers to the signal ratio. The entries are a selection whose mix differs from that of the whole data set.

Assay: qHTS Assay for Modulators of Lamin A Splicing
Details: HeLa LMNA splicing GFP/RFP minigene ratio, 48 h; series mostly up to 46.1 µM; ratio change, negative = inhibition: at the top concentration
Text: NCGC Assay Overview: Hutchinson-Gilford Progeria Syndrome (HGPS) is a pediatric premature aging disease caused by a spontaneous mutation in the lamin A/C (LMNA) gene. The mutation activates a cryptic splice site in the LMNA pre-mRNA which results in production of a pre-lamin A protein that cannot be processed properly. The mutant protein accumulates in the nucleus and negatively affects numerous cellular functions. Correction of the splicing defect in HGPS patient cells using a targeted oligonucleotide (exo11) leads to reversal of the cellular disease phenotypes. To identify small molecule modulators of aberrant LMNA splicing, a homogenous assay was constructed in HeLa cells that used a GFP containing minigene to report on correction of aberrant splicing in lamin A and a RFP (DsRed2) to report on cell viability, uniformity and nonspecific effects on the assay signal. This assay was adapted to laser-scanning microplate cytometry (Acumen, TTP Labtech) where miniaturization of the assay to a 1,536-well plate format was possible. References: Bowen, W. P.; Wylie, P. G. Application of Laser-Scanning Fluorescence Microplate Cytometry in High Content Screening. Assay Drug Dev Technol 2006;4:209-221. Scaffidi P, Misteli T. Reversal of the cellular phenotype in the premature aging disease Hutchinson-Gilford progeria syndrome. Nat.
NCGC Assay Protocol Summary: Reagents/Controls: Stable clones expressing DsRed2 and lamin A-EGFP were generated by Cell and Molecular Technologies in S3 HeLa cells. HeLa cells were prepared for the assay when they were 70-90% confluent. The cells were counted and resuspended in Opti-MEM I (no phenol red; Gibco), 2% FBS, 1% penicillin/ streptomycin (Gibco) at concentration of 120 cells/uL concentration. The suspension was passed through a Falcon basket filter with pore size 40um (Beckton Dickson). Control titrations: column […] 1536-well plate contained a sixteen point titration (1:2 dilutions) in duplicate of ancitabine (Sigma: A8598) beginning at 40 uM final concentration. Column 2 contained a sixteen point titration (1:2 dilutions) of cycloheximide beginning at 1.4 mM final concentration. Column 3 contained ancitabine at 40 uM and column 4 contained was the vehicle control (0.5% DMSO final concentration). Assay Steps: 5 uL of HeLa cells were plated in Aurora LoBase black clear bottom (cyclic-olefin polymer) 1536-well plates at a final density of 600 cells/well. Controls and library compounds were added with a 1536-well pin array using the Kalypsys pin-tool. The plates were then incubated for 48 hrs in a cell-culture incubator (37 °C; 5% CO2, 98% humidity). Following incubation the plates were read on the Acumen Explorer using the 488 nm laser. Data was collected on objects between 10 and 100 um in size. Cell objects were defined by a 15 um width x 10 um depth filter. The ratio of the total object intensity in PMT1 (500-530 nm emission; GFP) over PMT3 (575-640 nm emission; RFP) was calculated for analysis. Keywords: NIH Roadmap, MLSCN, MLI, MLSMR, qHTS, NCGC, lamin A, Progeria, RNA splicing.
% is scaled to controls: 0 for no effect and ±100 for the full control effect; potency is read from the fitted curve at half-maximal effect.

With CCN(CC)C(=O)N[C@H]1C[C@@H]2c3cccc4[nH]cc(c34)C[C@H]2N(C)C1 as the molecule, how does the “ratio change, negative = inhibition” value read?
The value was inactive: -0.865%.

Which “ratio change, negative = inhibition” value does the source give for CC[N+]1(C)CCCC(OC(=O)C(O)(c2ccccc2)c2ccccc2)C1 (stereo not drawn) here?
The value was inactive: 2.04%.

Which “ratio change, negative = inhibition” value does the source give for CCN(CC)C(=O)N[C@@H]1C[C@@H]2c3cccc4[nH]cc(c34)C[C@H]2N(C)C1 here?
Its value is inactive: -16.2%.

Which “ratio change, negative = inhibition” value does the source give for C=CCN1CCC23c4c5ccc(O)c4O[C@H]2C(=O)CC[C@@]3(O)C1C5 (stereo partly drawn) here?
Its value is inactive: -27.3%.

With C[N+](C)(C)CCCCCCCCCC[N+](C)(C)C as the molecule, how does the Potency read?
Its Potency is “inactive”.

With CC(CCc1ccccc1)NC(C)C(O)c1ccc(O)cc1 (stereo not drawn) as the molecule, how does the Potency read?
The Potency was “inactive”.

With C[N+]1([O-])[C@@H]2CC(OC(=O)[C@@H](CO)c3ccccc3)C[C@@H]1[C@H]1O[C@H]12 (stereo partly drawn) as the molecule, how does the “ratio change, negative = inhibition” value read?
Its value is inactive: 9.7%.

For CC[C@H]1C(=O)OC[C@H]1Cc1cncn1C, which “ratio change, negative = inhibition” value is on record?
Its value is inactive: -8.23%.

For CC(C)Nc1ccc(Nc2ccccc2)cc1, which Potency is on record?
Its Potency is active: 1410 nM.

For CNC(=O)Oc1ccc2c(c1)[C@@]1(C)CCN(C)[C@@H]1N2C, which “ratio change, negative = inhibition” value is on record?
The value was inactive: 7.31%.

Which Potency does the source give for CC(C(=O)O)c1ccc(-c2ccccc2)c(F)c1 (stereo not drawn) here?
Its Potency is “inactive”.

With Nc1ccncc1 as the molecule, how does the “ratio change, negative = inhibition” value read?
Its value is inactive: -5.43%.

With Cc1cc(C)cc(N2C(=O)NC(=O)/C(=C\c3cccn3-c3ccc(Cl)cc3)C2=O)c1 as the molecule, how does the “ratio change, negative = inhibition” value read?
Its value is inactive: -0.698%.

Which “ratio change, negative = inhibition” value does the source give for CC(N)[C@H](O)c1ccccc1 (stereo partly drawn) here?
The value was inactive: -5.68%.

Which “ratio change, negative = inhibition” value does the source give for CC(=O)[C@]1(O)CCC2C3CCC4=CC(=O)CC[C@@]4(C)C3CC[C@]21C (stereo partly drawn) here?
The value was inactive: -5.42%.

Which “ratio change, negative = inhibition” value does the source give for COP(=O)(OC)[C@@H](O)C(Cl)(Cl)Cl here?
Its value is inactive: 4.46%.

With O=c1[nH]c2ccccc2n1CCCN1CCC(n2c(=O)[nH]c3cc(Cl)ccc32)CC1 as the molecule, how does the “ratio change, negative = inhibition” value read?
Its value is inactive: -21.2%.

For CC(C)[N+](C)(CCC(C(N)=O)(c1ccccc1)c1ccccc1)C(C)C, which “ratio change, negative = inhibition” value is on record?
Its value is inactive: 9.4% [at 46 µM].

With CN1C[C@H](CNC(=O)OCc2ccccc2)C[C@H]2c3cccc4c3c(cn4C)C[C@@H]21 as the molecule, how does the “ratio change, negative = inhibition” value read?
The value was inactive: -22.5%.

Which “ratio change, negative = inhibition” value does the source give for O=[N+]([O-])c1ccc(C2[C@H]3C(c4ccccc4)=NC4(CCCC4)N23)cc1 (stereo partly drawn) here?
Its value is inactive: -9.03%.

For Cc1ccc(O)c(C(CCN(C(C)C)C(C)C)c2ccccc2)c1 (stereo not drawn), which “ratio change, negative = inhibition” value is on record?
Its value is inactive: -3.41%.

For NC(N)=NOCC[C@H](N)C(=O)O, which Potency is on record?
Its Potency is “inactive”.

With CC[C@@H]1C(=O)OC[C@@H]1Cc1cncn1C as the molecule, how does the Potency read?
Its Potency is “inactive”.

For Clc1cnc(Oc2ccc(Oc3ncc(Cl)cc3Cl)cc2)c(Cl)c1, which “ratio change, negative = inhibition” value is on record?
The value was inactive: 2.8%.

With CN1[C@@H]2CC(OC(=O)[C@H](CO)c3ccccc3)C[C@H]1[C@@H]1O[C@@H]12 (stereo partly drawn) as the molecule, how does the Potency read?
The Potency was “inactive”.

For CN1CCC23CCCC[C@H]2C1Cc1ccc(O)cc13 (stereo partly drawn), which “ratio change, negative = inhibition” value is on record?
The value was inactive: -25.9%.

Which “ratio change, negative = inhibition” value does the source give for C[C@]12CC[C@@H](O)C[C@@H]1CC[C@@H]1[C@@H]2CC[C@]2(C)C(=O)CC[C@@H]12 here?
Its value is inactive: 2.61% [at 46 µM].

Which “ratio change, negative = inhibition” value does the source give for CC1=CC(=O)C2=C(C)CC(O)C3C(C)C(=O)OC3C12 (stereo not drawn) here?
The value was inactive: 3.81%.

For CNC(=O)Oc1ccc2c(c1)[C@@]1(C)CCN(C)C1N2C (stereo partly drawn), which “ratio change, negative = inhibition” value is on record?
Its value is inactive: -13.7%.

With C[C@]12CC[C@@H](O)CC1CCC1C2CC[C@]2(C)C(=O)CC[C@@H]12 (stereo partly drawn) as the molecule, how does the “ratio change, negative = inhibition” value read?
The value was inactive: -20.5%.

For CN[C@@H]1C[C@@H](c2ccc(Cl)c(Cl)c2)c2ccccc21, which “ratio change, negative = inhibition” value is on record?
The value was inactive: -28.6% [at 46 µM].

Which “ratio change, negative = inhibition” value does the source give for NC1CC1c1ccccc1 (stereo not drawn) here?
Its value is inactive: -29.3%.

With COc1cc(C[C@@H](C)N)c(OC)cc1I as the molecule, how does the “ratio change, negative = inhibition” value read?
The value was inactive: -19.1%.

For CNCC[C@H](Oc1ccc(C(F)(F)F)cc1)c1ccccc1, which “ratio change, negative = inhibition” value is on record?
The value was inactive: -3.28%.

For C[N+]12CCC(CC1)C(OC(=O)C(O)(c1ccccc1)c1ccccc1)C2 (stereo not drawn), which “ratio change, negative = inhibition” value is on record?
The value was inactive: -0.312%.

For Cn1nc(-c2ccc(OCC(=O)N3CCN(Cc4ccccc4)CC3)cc2)c2ccccc2c1=O, which “ratio change, negative = inhibition” value is on record?
Its value is inactive: 0.33%.

Which Potency does the source give for COc1cc(CNC(=O)CCCC/C=C\C(C)C)ccc1O here?
The Potency was “inactive”.

Which Potency does the source give for CN=C(NC#N)NCCSCc1nc[nH]c1C here?
The Potency was “inactive”.

Which “ratio change, negative = inhibition” value does the source give for CCC(COC(=O)c1cc(OC)c(OC)c(OC)c1)(c1ccccc1)N(C)C (stereo not drawn) here?
The value was inactive: 7.03%.

With Oc1ccc2c3c1OC1C(O)CC[C@@]4(O)[C@@H](C2)N(CC2CCC2)CC[C@]314 (stereo partly drawn) as the molecule, how does the “ratio change, negative = inhibition” value read?
The value was inactive: 7.1% [at 46 µM].

For CN1C2CCC1CC(OC(c1ccccc1)c1ccccc1N)C2 (stereo not drawn), which “ratio change, negative = inhibition” value is on record?
The value was inactive: -14.5%.

For Cc1cccc(C)c1NC1=NCCCS1, which “ratio change, negative = inhibition” value is on record?
Its value is inactive: -4.98%.

With CC12CCC(=O)C=C1CCC1C2CCC2(C)C(O)CCC12 (stereo not drawn) as the molecule, how does the “ratio change, negative = inhibition” value read?
Its value is inactive: -0.459%.

With NC(N)=NS(=O)(=O)c1ccc(N)cc1 as the molecule, how does the “ratio change, negative = inhibition” value read?
Its value is inactive: -7.1%.

For CN1C(CC(=O)c2ccccc2)CCCC1CC(O)c1ccccc1 (stereo not drawn), which “ratio change, negative = inhibition” value is on record?
Its value is inactive: -5.82%.

With CCCN(CCC)C1CCc2cccc(O)c2C1 (stereo not drawn) as the molecule, how does the “ratio change, negative = inhibition” value read?
The value was inactive: -9.09%.

Which “ratio change, negative = inhibition” value does the source give for Nc1nc2ccc(Cl)cc2c2nc(-c3ccco3)nn12 here?
Its value is inactive: 4.4% [at 46 µM].

With CN(C)C(=O)Oc1cc(OC(=O)N(C)C)cc(C(O)CNC(C)(C)C)c1 (stereo not drawn) as the molecule, how does the “ratio change, negative = inhibition” value read?
The value was inactive: -2.02%.

For COc1ccc2c3c([nH]c2c1)C(C)=NCC3, which “ratio change, negative = inhibition” value is on record?
Its value is inactive: -16.3%.

With C[C@@]12CCC3C(CC[C@@H]4CC(O)CC[C@@]34C)C1CCC2O (stereo partly drawn) as the molecule, how does the “ratio change, negative = inhibition” value read?
Its value is inactive: -10.4%.

For CC(COc1ccccc1)N(CCCl)Cc1ccccc1 (stereo not drawn), which “ratio change, negative = inhibition” value is on record?
The value was inactive: -8.36%.

Which “ratio change, negative = inhibition” value does the source give for COc1cc2c(cc1OC)[C@@]13CCN4CC5=CCO[C@H]6CC(=O)N2[C@H]1[C@H]6[C@H]5C[C@H]43 here?
The value was inactive: -2.11%.

For C[C@H]1CC[C@@H]2[C@@H](C)[C@H]3[C@H](C[C@H]4[C@@H]5CC=C6C[C@@H](O[C@@H]7O[C@H](CO)[C@H](O)[C@H](O[C@@H]8O[C@H](CO)[C@@H](O)[C@H](O)[C@H]8O)[C@H]7O[C@@H]7O[C@@H](C)[C@H](O)[C@@H](O)[C@H]7O)CC[C@]6(C)[C@H]5CC[C@]34C)N2C1, which “ratio change, negative = inhibition” value is on record?
Its value is inactive: -3.1%.
